# Experimental data as given in the supplement of paper PMC10670038.
# “And” between values parts separate entries of the source, which are not always exact repeats. Equal values may be shown once. Where a name gives a salt, the structure may show the parent alone. ± gives the standard deviation of the averaged measurements. Over roughly 2,000 compounds, “relative cell viability vs DMSO, compound alone” has its median near 1.1; the lowest 2% begin near 0.29. The list shows a part of the results.
# Tested on: TE10
# Assay: relative cell viability vs DMSO, compound alone (fraction); TE10 is an esophageal squamous carcinoma line; higher = less cytotoxic
# Settings: 2 µM; 48 h
# Experimental: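 TE10 ESCC cells (1,000/well, 384-well plates) were treated with Selleck bioactive library compounds at 2 uM alone for 48 h. Viability was read by CellTiter-Glo and expressed relative to DMSO wells. Two technical replicates (A, B).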
row,Compound,relative cell viability
1,COc1ccc(OC)c(C2C(C#N)=C(N)Oc3n[nH]c(-c4ccc5ccccc5c4)c32)c1 (stereo unspecified),1.04 ± 0.023
2,CCNc1nc(Nc2cc(F)c(C(=O)N3CCOCC3)cc2OC)ncc1C(F)(F)F,1.23 ± 0.012
3,COc1cc(NS(=O)(=O)c2ccc(N)cc2)nc(OC)n1 [Sulphadimethoxine],1.07 ± 0.042
4,CC1(C)O[C@@H]2[C@@H](CO[C@@]3(COS(N)(=O)=O)OC(C)(C)O[C@@H]23)O1 [Topiramate],1.29 ± 0.052
5,NS(=O)(=O)Cc1noc2ccccc12 [Zonisamide],1.28 ± 0.015
6,C=CCc1ccc(O)c(-c2cc(CC=C)ccc2O)c1 [Magnolol],1.13 ± 0.043
7,Cc1cn([C@H]2C[C@H](N=[N+]=[N-])[C@@H](CO)O2)c(=O)[nH]c1=O [Zidovudine],1.02 ± 0.064
8,COc1ccc([C@@H]2Sc3ccccc3N(CCN(C)C)C(=O)[C@@H]2OC(C)=O)cc1 [Diltiazem HCl],0.817 ± 0.068
9,CC(=O)c1cc([N+](=O)[O-])c(Sc2ccc(F)cc2F)s1,0.877 ± 0.044
10,Cc1ccc2nc(NCCN)c3ncc(C)n3c2c1,0.98 ± 0.045
11,Cc1c(NC(=O)OC[C@@H]2COCCN2)cn2ncnc(Nc3ccc4c(cnn4Cc4cccc(F)c4)c3)c12,1.23 ± 0.12
12,COc1ccc(C[C@H](NC(=O)[C@H](C)NC(=O)CN2CCOCC2)C(=O)N[C@@H](Cc2ccccc2)C(=O)[C@@]2(C)CO2)cc1,0.0804 ± 0.0014
13,CC(C[N+](C)(C)C)OC(N)=O (stereo unspecified) [Bethanechol chloride],0.956 ± 0.08
14,COc1ccc(CCc2nc3cc(-c4c(C)noc4C)ccc3n2C[C@H](C)N2CCOCC2)cc1Cl,1.03 ± 0.041
15,O=C(O)c1cc2cccc([N+](=O)[O-])c2[nH]1,0.971 ± 0.044
16,CCNC(=O)c1noc(-c2cc(C(C)C)c(O)cc2O)c1-c1ccc(CN2CCOCC2)cc1,0.588 ± 0.017
17,"CC(=O)C1=C(O)C=C2Oc3c(C(C)=O)c(O)c(C)c(O)c3C2(C)C1=O (single isomer, unassigned; (+)) [(+)-Usniacin]",1.15 ± 0.034
18,CNCc1ccc(-c2[nH]c3cc(F)cc4c3c2CCNC4=O)cc1,1.26 ± 0.031
19,CCCNC(C)C(=O)Nc1c(C)csc1C(=O)OC (stereo unspecified) [Articaine HCl],1.16 ± 0.024
20,Cc1cnc(-c2cnc(NCCNc3ccc(C#N)cn3)nc2-c2ccc(Cl)cc2Cl)[nH]1,1.24 and 1.36
21,CC1(C)[C@@H](O)CC[C@]2(C)[C@H]3C(=O)C=C4[C@@H]5C[C@@](C)(C(=O)O)CC[C@]5(C)CC[C@@]4(C)[C@]3(C)CC[C@@H]12 [Enoxolone],1.03 ± 0.032
22,CC1(C)CC(=O)c2c(C(F)(F)F)nn(-c3ccc(C(N)=O)c(N[C@H]4CC[C@H](OC(=O)CN)CC4)c3)c2C1,0.5505 ± 0.0039
23,C[C@H]1COC2(CCN(c3nc(=O)c4cc(C(F)(F)F)cc([N+](=O)[O-])c4s3)CC2)O1 (racemic) [BTZ043 Racemate],1.08 ± 0.042
24,O=C(O)c1ccc(-n2nc(-c3ccccc3O)nc2-c2ccccc2O)cc1 [Deferasirox],1.095 ± 0.0019
25,COc1c(C)c2c(c(O)c1C/C=C(\C)CCC(=O)OCCN1CCOCC1)C(=O)OC2 [Mycophenolate Mofetil],0.857 ± 0.028
26,CN1C(C(=O)Nc2ccccn2)=C(O)c2ccccc2S1(=O)=O [Piroxicam],1.13 ± 0.032

row,Compound,relative cell viability
1,NCCS [Cysteamine HCl],1.07 ± 0.033
2,COCCOC(=O)C1=C(C)NC(C)=C(C(=O)OC(C)C)C1c1cccc([N+](=O)[O-])c1 (stereo unspecified) [Nimodipine],1.102 ± 0.0064
3,O=C(NCc1cccc(O)c1)Nc1nc(-c2ccncc2)cs1,1.115 ± 0.011
4,COc1cc(C(=O)NC2CCN(C)CC2)ccc1Nc1ncc2c(n1)N(C1CCCC1)CC(F)(F)C(=O)N2C,0.974 ± 0.05
5,COC(=O)CCc1ccc(OCC(O)CNC(C)C)cc1 (stereo unspecified) [Esmolol HCl],0.998 ± 0.042
6,C[C@H](NC(=O)CCc1nc2ccccc2c(=O)[nH]1)c1ccccc1,0.9552 ± 0.0032
7,NCC(=O)CCC(=O)O [5-Aminolevulinic acid HCl],1.01 ± 0.051
8,CN1CCC(CNc2ccc3ncc(-c4cccc(OC(F)(F)F)c4)n3n2)CC1 [SGI-1776 free base],1.046 ± 0.0074
9,Cc1ccc(Sc2ccccc2N2CCNCC2)c(C)c1,1.07 ± 0.011
10,Cc1ccc(C)c(OCCCC(C)(C)C(=O)O)c1 [Gemfibrozil],1.12 ± 0.066
11,O=C(O)C[C@H](O)C[C@H](O)/C=C/c1c(C2CC2)nc2ccccc2c1-c1ccc(F)cc1 [Pitavastatin Calcium],0.761 ± 0.015
12,O=C(CCCN1CCC(O)(c2ccc(Cl)cc2)CC1)c1ccc(F)cc1 [Haloperidol],0.897 ± 0.2
13,CN1CCN(Cc2ccc(NC(=O)Nc3ccc(Oc4cc(NC(=O)C5CC5)ncn4)cc3)cc2C(F)(F)F)CC1,0.583 ± 0.0068
14,COc1cc2c(cc1OC)[C@@H]1Cc3ccc(OC)c(OC)c3CN1CC2 [Rotundine],1.14 ± 0.088
15,Cc1c(OCC(F)(F)F)ccnc1C[S+]([O-])c1nc2ccccc2[nH]1 (stereo unspecified) [Lansoprazole],1.24 ± 0.048
16,O=C1CCc2c(ccc3ccccc23)O1 [Splitomicin],1.13 ± 0.047
17,CC[C@@H]1C(=O)N(C)c2cnc(Nc3ccc(C(=O)NC4CCN(C)CC4)cc3OC)nc2N1C1CCCC1,0.792 ± 0.032
18,O=S(=O)(N=Cc1c(O)ccc2ccccc12)c1cccs1,1.2 ± 0.02
19,CCS(=O)(=O)N1CCC([C@@H](C)n2c(C)c(C(=O)NCc3c(OC)cc(C)[nH]c3=O)c3ccccc32)CC1,1.07 ± 0.055
20,"CO[C@H]1C[C@@H]2CC[C@@H](C)[C@@](O)(O2)C(=O)C(=O)N2CCCC[C@H]2C(=O)O[C@H]([C@H](C)C[C@@H]2CC[C@@H](OP(C)(C)=O)[C@H](OC)C2)CC(=O)[C@H](C)/C=C(\C)[C@@H](O)[C@@H](OC)C(=O)[C@H](C)C[C@H](C)/C=C/C=C/C=C/1C [Ridaforolimus (Deforolimus, MK-8669)]",0.86 ± 0.035
21,COc1ccc2cc1Oc1ccc(cc1)C[C@H]1c3c(cc4c(c3Oc3cc5c(cc3OC)CCN(C)[C@@H]5C2)OCO4)CCN1C [Cepharanthine],1.05 ± 0.016
22,COc1ccc(COc2cc3oc(=O)c4cc(C(C)O)ccc4c3cc2OC)cc1 (stereo unspecified) [Palomid 529 (P529)],1.14 ± 0.025
23,NC1=N[C@@]2(c3cc(NC(=O)c4ccc(F)cn4)ccc3F)COC[C@H]2CS1,0.901 ± 0.022
24,Cc1ccc(-n2[nH]c(C)c(N=Nc3cccc(-c4cccc(C(=O)O)c4)c3O)c2=O)cc1C [Eltrombopag],0.973 ± 0.05
25,Cc1ccc(-n2[nH]c(C)c(N=Nc3cccc(-c4cccc(C(=O)O)c4)c3O)c2=O)cc1C [Eltrombopag Olamine],1.07 ± 0.035
